According to PubChem BioAssay AID624417 (National Center for Advancing Translational Sciences (NCATS), 2012):
Where “and” joins values, the source holds several entries; their conditions need not be identical. Equal values may be shown once. Screen size: about 410,000 compounds; about 6,400 (1.6%) were called active. This list was built around the results that the source calls inconclusive (neither active nor inactive); the mix of calls is not that of the screen. Calls come from the whole dose curve; as a rule, active = well fitted inhibition curve with a large enough effect; inconclusive = small, poorly fitted or top-dose-only effect; inactive = no such curve, though single readings can be large or run the other way. Potencies of inconclusive entries are doubtful fits and often do not repeat.

The molecules below were run against Glucagon-like peptide 1 receptor (Homo sapiens) (UniProt P43220) (assay: qHTS of GLP-1 Receptor Inverse Agonists (Inhibition Mode)). Conditions: HEK293 GLP-1R CRE-luciferase, luminescence, 24 h, GLP-1R form is constitutively active; series mostly up to 38.3 µM.
Sequence of UniProt P43220 (P43220 whole entry, looked up): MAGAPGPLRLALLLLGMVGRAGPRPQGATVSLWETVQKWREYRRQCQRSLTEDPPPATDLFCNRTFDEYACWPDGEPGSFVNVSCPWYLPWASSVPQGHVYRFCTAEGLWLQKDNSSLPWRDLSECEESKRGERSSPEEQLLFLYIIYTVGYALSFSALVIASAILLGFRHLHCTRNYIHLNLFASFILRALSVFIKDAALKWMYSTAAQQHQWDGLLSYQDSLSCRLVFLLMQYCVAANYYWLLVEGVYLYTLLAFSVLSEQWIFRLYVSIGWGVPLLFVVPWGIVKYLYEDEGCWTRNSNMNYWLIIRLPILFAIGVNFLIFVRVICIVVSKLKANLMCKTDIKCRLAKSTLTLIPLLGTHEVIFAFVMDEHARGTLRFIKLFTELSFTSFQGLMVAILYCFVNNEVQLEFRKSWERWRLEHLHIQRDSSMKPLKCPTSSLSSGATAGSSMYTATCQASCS
How it was run: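 Constitutively active GLP-1R drives a cAMP-responsive luciferase in stably transfected HEK293 cells; test compounds are added after overnight (12 h) attachment and left 24 hr, and signal loss in luminescence marks inhibition.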
Note: nearly all actives have a fitted effect of over 55% in size.
Potency is the fitted concentration of half-maximal effect; tags give direction and shape of the fitted curve.

Structure (SMILES) | Potency
O=C(NNc1ccc([N+](=O)[O-])cc1)C12CC3CC(CC(C3)C1)C2 | inconclusive: 20 µM [inhibitor, single point]
CC(Cc1ccccn1)NC(=O)c1ccc(OC2CCN(CCc3ccccc3)CC2)cc1 (configuration not stated) | inconclusive: 10 µM [inhibitor, partial curve, poor fit]
CCc1ccc(OCc2nnc(SCC(=O)NC3CCCCC3)o2)cc1 | inconclusive: 10 µM [inhibitor, single point]
Cc1ccc(OCCC(=O)Nc2ccc(F)c(F)c2)cc1 | inconclusive: 22.4 µM [inhibitor, single point]
COc1ccc(CN(C(=O)c2ccco2)C2CCS(=O)(=O)C2)cc1 (configuration not stated) | inactive
CC1CCCN(CCCNC(=O)c2ccc3c(c2)N(Cc2ccccc2F)C(=O)c2ccccc2S3(=O)=O)C1 (configuration not stated) | inconclusive: 28.2 µM [inhibitor, single point] and inconclusive: 10 µM [inhibitor, partial curve, poor fit]
COc1cc(/C=N/n2c(C3CCCCC3)n[nH]c2=S)cc(Br)c1O | inconclusive: 31.6 µM [inhibitor, single point]
Cc1cccc(N2CCN(C(=O)c3ccc(CS(=O)Cc4cccc(Cl)c4)o3)CC2)c1C (configuration not stated) | inconclusive: 20 µM [inhibitor, single point]
COc1ccccc1CNC(=S)NC1CCCCC1 | inconclusive: 28.2 µM [inhibitor, single point]
Cc1ccc(C)c(N2CCN(C(=O)c3ccc(NC(=O)c4nsc5ccccc45)cc3)CC2)c1 | inconclusive: 28.2 µM [inhibitor, single point]
Cc1ccc(CNC(=O)CCCCCn2c(=O)[nH]c3ccccc3c2=O)cc1 | inactive
Cc1nn(-c2ccccc2)c(OC(=O)C(C)C)c1Sc1ccc(Cl)cc1 | inconclusive: 31.6 µM [inhibitor, single point]
Cc1ccc(/C=C/c2onc(C)c2S(=O)(=O)N2CCC(C(=O)Nc3ccc(C)c(N(C)C)c3)CC2)cc1 | inconclusive: 0.355 µM [inhibitor, full curve, poor fit]
CCCNC(=O)c1c(N)n(-c2ccc3c(c2)OCO3)c2nc3ccccc3nc12 | inactive
CC(/C=N/NC(=O)c1ccco1)=C\c1ccccc1 | inconclusive: 10 µM [inhibitor, single point]
CC(C)(C)n1nnnc1C(c1ccc(C(F)(F)F)cc1)N(Cc1ccccc1)Cc1ccco1 (configuration not stated) | active: 5.62 µM
Cc1ccc(C)c(CN2C(=O)c3ccccc3S(=O)(=O)c3ccc(C(=O)N(C)C4CCCCC4)cc32)c1 | inconclusive: 14.1 µM [inhibitor, single point]
